The values that follow come from publication PMC5775257.

Results are given in words; binding and its absence hold for the method and conditions named. Binding seen in cells or lysates may run through a third protein. Some results given as binding are weak or reduced against the parent protein; the word gives no strength.

Assay [1] has as its target T1, endogenous Nufip2 (MEF cells) (mouse (endogenous in MEF)) (UniProt Q5F2E7).
T1 sequence: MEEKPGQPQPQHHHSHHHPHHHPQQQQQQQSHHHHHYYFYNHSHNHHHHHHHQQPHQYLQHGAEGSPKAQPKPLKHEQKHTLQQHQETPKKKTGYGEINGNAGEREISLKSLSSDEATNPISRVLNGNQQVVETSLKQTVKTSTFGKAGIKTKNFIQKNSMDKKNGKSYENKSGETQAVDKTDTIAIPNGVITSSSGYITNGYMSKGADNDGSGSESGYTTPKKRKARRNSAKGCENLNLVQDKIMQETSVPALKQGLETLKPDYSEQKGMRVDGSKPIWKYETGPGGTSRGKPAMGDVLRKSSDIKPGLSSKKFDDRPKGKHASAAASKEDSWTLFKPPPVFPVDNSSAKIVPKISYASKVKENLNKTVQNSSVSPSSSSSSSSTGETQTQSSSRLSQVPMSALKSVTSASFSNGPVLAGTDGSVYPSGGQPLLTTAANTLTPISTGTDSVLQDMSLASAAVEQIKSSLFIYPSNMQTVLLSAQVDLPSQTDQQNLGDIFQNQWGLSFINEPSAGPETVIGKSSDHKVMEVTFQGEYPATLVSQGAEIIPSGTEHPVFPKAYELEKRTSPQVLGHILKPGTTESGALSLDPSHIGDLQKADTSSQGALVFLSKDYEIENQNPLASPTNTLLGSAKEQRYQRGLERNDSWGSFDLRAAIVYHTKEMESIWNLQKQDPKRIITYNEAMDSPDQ
Description: co-IP; anti-Nufip2 (23G8) on Protein G Dynabeads; endogenous proteins from lysates of individual Roquin-1 or Roquin-2 knockout cells; immunoblot. In general terms: In western blotting, separated proteins are transferred to a membrane and probed.

The target in assay [2] is T2, Roquin-1 (transfected, HEK293T) (UniProt Q4VGL6).
T2 sequence: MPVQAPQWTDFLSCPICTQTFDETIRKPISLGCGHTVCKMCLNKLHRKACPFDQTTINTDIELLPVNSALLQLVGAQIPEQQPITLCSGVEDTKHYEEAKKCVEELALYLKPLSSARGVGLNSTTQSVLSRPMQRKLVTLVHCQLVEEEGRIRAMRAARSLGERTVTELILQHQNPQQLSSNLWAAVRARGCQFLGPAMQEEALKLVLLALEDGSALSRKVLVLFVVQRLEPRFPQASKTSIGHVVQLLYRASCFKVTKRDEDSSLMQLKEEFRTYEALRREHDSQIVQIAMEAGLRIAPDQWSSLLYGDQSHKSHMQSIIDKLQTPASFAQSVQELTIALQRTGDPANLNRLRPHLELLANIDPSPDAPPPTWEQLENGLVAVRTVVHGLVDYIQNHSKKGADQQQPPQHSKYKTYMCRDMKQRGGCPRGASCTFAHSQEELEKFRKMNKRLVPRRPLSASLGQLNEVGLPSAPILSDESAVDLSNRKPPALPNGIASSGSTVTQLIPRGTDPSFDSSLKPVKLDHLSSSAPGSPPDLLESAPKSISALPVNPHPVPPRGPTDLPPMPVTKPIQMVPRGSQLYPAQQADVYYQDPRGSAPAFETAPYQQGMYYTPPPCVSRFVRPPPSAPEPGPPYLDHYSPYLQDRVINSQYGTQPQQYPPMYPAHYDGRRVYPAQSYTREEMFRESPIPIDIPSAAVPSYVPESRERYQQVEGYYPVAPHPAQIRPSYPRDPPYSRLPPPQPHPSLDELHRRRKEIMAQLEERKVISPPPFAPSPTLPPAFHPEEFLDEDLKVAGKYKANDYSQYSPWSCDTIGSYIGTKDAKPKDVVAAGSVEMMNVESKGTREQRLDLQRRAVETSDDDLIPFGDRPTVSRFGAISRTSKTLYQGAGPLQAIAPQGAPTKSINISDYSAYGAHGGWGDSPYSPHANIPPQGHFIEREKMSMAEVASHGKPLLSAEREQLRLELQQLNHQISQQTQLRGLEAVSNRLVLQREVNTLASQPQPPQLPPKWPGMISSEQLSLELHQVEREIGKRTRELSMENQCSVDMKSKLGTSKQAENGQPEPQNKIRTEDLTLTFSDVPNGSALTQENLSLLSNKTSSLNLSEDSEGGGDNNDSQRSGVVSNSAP
Briefly: co-IP; polyclonal anti-Roquin-1 on Protein A Dynabeads; lysates of HEK293T cells transfected with Roquin-1 and NUFIP2 fragments; immunoblot.

B1: endogenous Roquin-1 (MEF cells) (protein, UniProt Q4VGL6 1-1130)
chain: T2 sequence
Consider B1, for which the binding entry in assay [1] is “binds”.

B2: NUFIP2 (aa 411–695) (domain or fragment, UniProt Q7Z417 411-695)
chain: SANFSNGPVLAGTDGNVYPPGGQPLLTTAANTLTPISSGTDSVLQDMSLTSAAVEQIKTSLFIYPSNMQTMLLSTAQVDLPSQTDQQNLGDIFQNQWGLSFINEPSAGPETVTGKSSEHKVMEVTFQGEYPATLVSQGAEIIPSGTEHPVFPKAYELEKRTSPQVLGSILKSGTTSESGALSLEPSHIGDLQKADTSSQGALVFLSKDYEIESQNPLASPTNTLLGSAKEQRYQRGLERNDSWGSFDLRAAIVYHTKEMESIWNLQKQDPKRIITYNEAMDSPDQ
On to B2, for which the binding entry in assay [2] was “no binding”.

B3: NUFIP2 (aa 1–255) (domain or fragment, UniProt Q7Z417 1-255)
chain: MEEKPGQPQPQHHHSHHHPHHHPQQQQQQPHHHHHYYFYNHSHNHHHHHHHQQPHQYLQHGAEGSPKAQPKPLKHEQKHTLQQHQETPKKKTGYGELNGNAGEREISLKNLSSDEATNPISRVLNGNQQVVDTSLKQTVKANTFGKAGIKTKNFIQKNSMDKKNGKSYENKSGENQSVDKSDTIPIPNGVVTNNSGYITNGYMGKGADNDGSGSESGYTTPKKRKARRNSAKGCENLNIVQDKIMQQETSVPTLK
For the molecule B3, in assay [2], the binding entry was “no binding”.

B4: endogenous Roquin-2 (MEF cells) (protein, UniProt P0C090 1-1187)
chain: MPVQAAQWTEFLSCPICYNEFDENVHKPISLGCSHTVCKTCLNKLHRKACPFDQTAINTDIDVLPVNFALLQLVGAQVPDHQSIKLSNLGENKHYEVAKKCVEDLALYLKPLSGGKGVASLNQSALSRPMQRKLVTLVNCQLVEEEGRVRAMRAARSLGERTVTELILQHQNPQQLSANLWAAVRARGCQFLGPAMQEEALKLVLLALEDGSALSRKVLVLFVVQRLEPRFPQASKTSIGHVVQLLYRASCFKVTKRDEDSSLMQLKEEFRSYEALRREHDAQIVHIAMEAGLRISPEQWSSLLYGDLAHKSHMQSIIDKLQSPESFAKSVQELTIVLQRTGDPANLNRLRPHLELLANIDPNPDAVSPTWEQLENAMVAVKTVVHGLVDFIQNYSRKGHETPQPQPNSKYKTSMCRDLRQQGGCPRGTNCTFAHSQEELEKYRLRNKKMSATVRTFPLLNKVGVNSTVTTTAGNVISVIGSTETTGKIVASTNGISNTESSVSQLIPRGTDSAVRTLETVKKVGKVGTNAQNAGPSAESVSENKIGSPPKTPVSNAAATSAGPSNFGTELNSLPPKSSPFLTRVPVYPQHSESIQYFQDPRTQIPFEVPQYPQTGYYPPPPTVPAGVTPCVPRFVRSSNVPESSLPPASMPYADHYSTFSPRDRMNSSPYQPPPPQQYGPVPPVPSGMYAPVYDSRRIWRPAMYQRDDIIRSNSLPPMDVMHSSVYQTSLRERYNSLDGYYSVACQPPNDPRTTVPLPREPCGHLKTSCEEQLRRKPDQWTQYHTQKTPVSSTLPVATQSPTPPSPLFSVDFRSDFSESVSGAKFEEDHLSHYSPWSCGTIGSCINAIDSEPKDVIANSNAVLMDLDSGDVKRRVHLFEAQRRTKEEDPIIPFSDGPIISKWGAISRSSRTGYHTTDPVQATASQGSATKPISVSDYVPYVNAVDSRWSSYGNDATSSAHYIERDRFIVTDLSGHRKHSSTGDLLSIELQQAKSNSLLLQREANALAMQQKWNSLDEGRHLTLNLLSKEIELRNGENDYTEDTVDTKPDRDIELELSALDTDEPDGQSEQIEEILDIQLGISSQNDQLLNGTAVENGHPAQQHQKDPGKPKRQSLGEDHVILEEQKPILPVTSCFSQPRPMSISSASCLPITTSVSVGNLILKTHVMSEDKNDFLKPIANGKMVNS
As for B4, in assay [1], the binding result is “binds”.
